Preventive value data for five compounds are collected here from patent US10201158B2, “Plant disease control composition and method for controlling plant disease by application of same” (MITSUI CHEMICALS AGRO, INC., priority 2014, dated 2019).

Where two headings read alike, the source gives them in different places.

For this assay, the system named is Botrytis cinerea. In kind it is in vivo.
[1] abbreviates: Table 2-5, treatment concentration 50 ppm.

For the compound `C=CCSC(=O)n1c(N)c(-c2ccccc2C)c(=O)n1C(C)C` [Fenpyrazamine (b-99), Fenpyrazamine], under “Table 2-3, treatment concentration 10 ppm”, the Preventive value amounted to 47.

`CN1OC(c2ccc(Cl)cc2)CC1(C)c1cccnc1` (centres unmarked) [Pyrisoxazole (b-103), Pyrisoxazole] showed a Preventive value (Table 2-5, treatment concentration 10 ppm) of 40.

Under setting [1], `CN(C)C(=S)SSC(=S)N(C)C` [Thiuram (b-68), Thiuram] came in with a Preventive value of 67.

For the compound `COP(=S)(OC)Oc1c(Cl)cc(C)cc1Cl` [Tolclofos-methyl], for the setting “Table 2-10 (Comparative Example 1), treatment concentration 50 ppm”, the Preventive value is on record as 17.

Under setting [1], Metiram [Metiram (b-67)] displayed a Preventive value of 67.
